Laboratory results as given in the supplement of paper PMC11741623.
The other results are listed elsewhere or left out. Interaction screen of human proteins with wild-type SARS-CoV-2 proteins by split-DHFR complementation in yeast, 1 µg/mL methotrexate. Value = fitness of the pair (three or more lineages) minus that of the viral protein without a human partner, on a scale set by negative (0) and fused positive (1) controls, mean of up to three cultures; higher = more likely to interact. Active = false discovery rate below 0.05 (one-sided t-test) in at least one culture. Nearly all pairs are not hits, and differences among them are mostly noise (correlation between cultures about 0.3); most hits were seen in one culture only. Human sequences are the Swiss-Prot entries looked up by gene name; the clone may be another isoform. NSP2 values were corrected by the authors for a growth advantage. Listed are human proteins with a hit and a random twelfth of the others.

B1: MPP1, Q00013 (protein)
chain: MTLKASEGESGGSMHTALSDLYLEHLLQKRSRPEAVSHPLNTVTEDMYTNGSPAPGSPAQVKGQEVRKVRLIQFEKVTEEPMGITLKLNEKQSCTVARILHGGMIHRQGSLHVGDEILEINGTNVTNHSVDQLQKAMKETKGMISLKVIPNQQSRLPALQMFMRAQFDYDPKKDNLIPCKEAGLKFATGDIIQIINKDDSNWWQGRVEGSSKESAGLIPSPELQEWRVASMAQSAPSEAPSCSPFGKKKKYKDKYLAKHSSIFDQLDVVSYEEVVRLPAFKRKTLVLIGASGVGRSHIKNALLSQNPEKFVYPVPYTTRPPRKSEEDGKEYHFISTEEMTRNISANEFLEFGSYQGNMFGTKFETVHQIHKQNKIAILDIEPQTLKIVRTAELSPFIVFIAPTDQGTQTEALQQLQKDSEAIRSQYAHYFDLSLVNNGVDETLKKLQEAFDQACSSPQWVPVSWVY
B2: MSC, O60682 (protein)
chain: MSTGSVSDPEEMELRGLQREYPVPASKRPPLRGVERSYASPSDNSSAEEEDPDGEEERCALGTAGSAEGCKRKRPRVAGGGGAGGSAGGGGKKPLPAKGSAAECKQSQRNAANARERARMRVLSKAFSRLKTSLPWVPPDTKLSKLDTLRLASSYIAHLRQLLQEDRYENGYVHPVNLTWPFVVSGRPDSDTKEVSAANRLCGTTA
B3: SLC35C1, Q96A29 (protein)
chain: MNRAPLKRSRILHMALTGASDPSAEAEANGEKPFLLRALQIALVVSLYWVTSISMVFLNKYLLDSPSLRLDTPIFVTFYQCLVTTLLCKGLSALAACCPGAVDFPSLRLDLRVARSVLPLSVVFIGMITFNNLCLKYVGVAFYNVGRSLTTVFNVLLSYLLLKQTTSFYALLTCGIIIGGFWLGVDQEGAEGTLSWLGTVFGVLASLCVSLNAIYTTKVLPAVDGSIWRLTFYNNVNACILFLPLLLLLGELQALRDFAQLGSAHFWGMMTLGGLFGFAIGYVTGLQIKFTSPLTHNVSGTAKACAQTVLAVLYYEETKSFLWWTSNMMVLGGSSAYTWVRGWEMKKTPEEPSPKDSEKSAMGV
B4: TBCA, O75347 (protein)
chain: MADPRVRQIKIKTGVVKRLVKEKVMYEKEAKQQEEKIEKMRAEDGENYDIKKQAEILQESRMMIPDCQRRLEAAYLDLQRILENEKDLEEAEEYKEARLVLDSVKLEA

How the values were obtained:
Assay in all cases: yeast fitness gain over the viral ORF with no human partner (scaled fitness); higher = more likely to interact
[1] = biological target: SARS-CoV-2 NSP1
Protocol: (§1)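 Split mouse DHFR complementation in pooled diploid yeast: human ORFeome clones carry one fragment and viral ORFs the other; barcoded lineages compete in 1 µg/mL methotrexate and fitness is read by barcode sequencing in up to three cultures.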

[2] = biological target: SARS-CoV-2 NSP12
Protocol: as §1

[3] = biological target: SARS-CoV-2 NSP13
Protocol: as §1

[4] = biological target: SARS-CoV-2 NSP15
Protocol: as §1

[5] = biological target: SARS-CoV-2 NSP2
Protocol: as §1

[6] = biological target: SARS-CoV-2 NSP5
Protocol: as §1

[7] = biological target: SARS-CoV-2 NSP6
Protocol: as §1

[8] = biological target: SARS-CoV-2 NSP8
Protocol: as §1

[9] = biological target: SARS-CoV-2 ORF10
Protocol: as §1

[10] = biological target: SARS-CoV-2 ORF3B
Protocol: as §1

[11] = biological target: SARS-CoV-2 ORF6
Protocol: as §1

[12] = biological target: SARS-CoV-2 ORF7B
Protocol: as §1

[13] = biological target: SARS-CoV-2 ORF8
Protocol: as §1

[14] = biological target: SARS-CoV-2 ORF9B
Protocol: as §1

[15] = biological target: SARS-CoV-2 S
Protocol: as §1

[16] = biological target: SARS-CoV-2 ORF3A
Protocol: as §1

[17] = biological target: SARS-CoV-2 ORF9Bwu (the 73-codon ORF)
Protocol: as §1

[18] = biological target: SARS-CoV-2 NSP10
Protocol: as §1

[19] = biological target: SARS-CoV-2 NSP14
Protocol: as §1

[20] = biological target: SARS-CoV-2 NSP4
Protocol: as §1

[21] = biological target: SARS-CoV-2 NSP7
Protocol: as §1

[22] = biological target: SARS-CoV-2 NSP9
Protocol: as §1

[23] = biological target: SARS-CoV-2 ORF7A
Protocol: as §1

Binder	yeast fitness gain [1]	yeast fitness gain [2]	yeast fitness gain [3]	yeast fitness gain [4]	yeast fitness gain [5]	yeast fitness gain [6]	yeast fitness gain [7]	yeast fitness gain [8]	yeast fitness gain [9]	yeast fitness gain [10]	yeast fitness gain [11]	yeast fitness gain [12]	yeast fitness gain [13]	yeast fitness gain [14]	yeast fitness gain [15]	yeast fitness gain [16]	yeast fitness gain [17]	yeast fitness gain [18]	yeast fitness gain [19]	yeast fitness gain [20]	yeast fitness gain [21]	yeast fitness gain [22]	yeast fitness gain [23]
B1	inactive: 0.00702	inactive: -0.0868	inactive: 0.0278	inactive: -0.2	inactive: -0.0953	inactive: -0.0236	inactive: -0.0477	inactive: 0.0789	inactive: 0.0714	inactive: -0.066	inactive: 0.0394	inactive: 0.0253	inactive: 0.00458	inactive: -0.113	inactive: -0.113								
B2	inactive: 0.0589	inactive: -0.246	inactive: -0.0296		inactive: -0.0143	inactive: -0.0403			inactive: -0.374	inactive: 0.0462	inactive: 0.0576	inactive: 0.0138	inactive: -0.000821	inactive: -0.227	inactive: -0.0267	inactive: -0.408							
B3	inactive: 0.00791		inactive: -0.103		inactive: -0.187					inactive: 0.0233	inactive: 0.0231	inactive: 0.0259	inactive: -0.0356	inactive: -0.0983	inactive: -0.209		inactive: -0.0641						
B4	inactive: 0.0908	inactive: -0.034	inactive: 0.0309		active: 0.468		inactive: -0.129		inactive: -0.0983	inactive: -0.037	inactive: -0.0283	inactive: -0.0664	inactive: 0.0231	inactive: -0.0237	inactive: -0.00122			inactive: 0.0419	inactive: -0.0832	inactive: -0.29	inactive: -0.0656	inactive: 0.00745	inactive: -0.115
